Results as given in PubChem BioAssay AID686979 (National Center for Advancing Translational Sciences (NCATS), 2013).
Out of some 420,000 compounds screened, about 50,000 (12%) were called active. The shares of active, inactive and inconclusive entries below differ from those in the screen. Calls follow the shape of the dose curve; as a rule, active = well fitted inhibition curve with a large enough effect; inconclusive = small, poorly fitted or top-dose-only effect; inactive = flat fitted curve, though single readings scatter. No potency is given beside an inconclusive call; the fits are too rough.

Test: qHTS for Inhibitors of human tyrosyl-DNA phosphodiesterase 1 (TDP1): qHTS in cells in presence of CPT; also: nearly all actives have a fitted effect of over 55% in size
Details: chicken DT40 Tdp1-/-;hTDP1 cells + 20 nM CPT, ATP luminescence, 48 h; activity change, negative = growth inhibition: at 46.2 µM (top of the series)
Method in brief: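 Chicken DT40 Tdp1-/- cells complemented with human TDP1, 400 cells/well, exposed to compounds plus 20 nM camptothecin for at least 48 h at 37 C; viability read as ATP content by CellTiter-Glo luminescence.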
% is scaled to controls: 0 for no effect and ±100 for the full control effect; potency is read from the fitted curve at half-maximal effect; tags tell the direction and shape of the fitted curve.

Row | SMILES | activity change, negative = growth inhibition | Potency
1 | CCC(=O)Nc1cccc(NC(=O)CSc2nnc(C3CC3)n2C)c1 | inactive: -7.88% | 
2 | CC(C)Nc1nc(NC(N)=S)nc(NC(C)C)n1 |  | inconclusive [inhibitor, single point]
3 | COc1cccc(NC(=O)c2oc3ccccc3c2NC(=O)c2ccccc2C)c1 |  | active: 10.3 µM
4 | C/C(=N\Nc1cc(C)nc(-c2ccccc2)n1)c1cccc([N+](=O)[O-])c1 |  | active: 20.6 µM
5 | O=C(CC1N=C2c3ccccc3N=C(SCc3cccc(F)c3)N2C1=O)NCc1cccs1 (stereo unspecified) |  | inconclusive [inhibitor, single point]
6 | Cn1nc(C(C)(C)C)cc1C(=O)NNC(=O)c1ccccc1Cl | inconclusive: -33% [inhibitor] | 
7 | COC(=O)CCC(=O)OC1(C)C(=O)C2=CN(C3CCCC3)C(c3ccc(OC)cc3)=CC2=C(Br)C1=O (stereo unspecified) |  | inconclusive [inhibitor, single point]
8 | Cc1ccc(S(=O)(=O)/N=C2\C=C(NS(=O)(=O)c3ccccc3)C(=O)c3ccccc32)cc1 |  | active: 20.6 µM
9 | C=Nc1ccc(/C=C/c2ccnc3ccccc23)cc1 |  | active: 22.4 µM
10 | Cn1cccc1C(=O)OCc1ccc(C(C)(C)C)cc1 |  | inconclusive [inhibitor, single point]
11 | CCOc1ccc(CNC(=O)c2ccc(CSc3nc4ccncc4n3Cc3ccc(F)cc3)cc2)cc1 |  | inconclusive [inhibitor, single point]
12 | CCCOc1ccc2c3c(c(=O)oc2c1OCCC)CCC3 |  | inconclusive [inhibitor, single point]
13 | CN(C)c1nc(-c2ccccc2C(F)(F)F)nc2ccccc12 | inactive: -12.1% | 
14 | COc1ccc(NC(=O)CSc2nnc(C3CCCCC3)n2-c2ccccc2)cc1 |  | active: 14.6 µM
15 | CCCc1nc2ccc(Cl)cn2c1Cc1ccc(C)cc1 |  | active: 23.1 µM
16 | CCOC(=O)CN1C(=O)C(C)(C)Oc2ccc(C(=O)Nc3ccccc3OC)cc21 |  | active: 16.4 µM
17 | Cc1noc(C)c1S(=O)(=O)Nc1ccccc1N1CCOCC1 | inactive: 1.31% | 
18 | O=C(c1ccco1)N1CCN(Cc2nnc(-c3cccc(Br)c3)o2)CC1 |  | inconclusive [inhibitor, partial curve, poor fit]
19 | CCOC(=O)C1CCCN(C(=O)c2ccc(S(=O)(=O)Nc3ccccc3OC)cc2)C1 (stereo unspecified) |  | inconclusive [inhibitor, single point]
20 | CSc1ccc(NC(=O)c2cccnc2)cc1C#N | inactive: 8.41% | 
21 | COc1cccc(C(=O)Nc2ccc3nc(N4CCOCC4)cc(C)c3c2)c1 |  | active: 16.4 µM
22 | O=C(c1cccc(-c2nnc(-c3ccccc3)o2)c1)N1CCCCCC1 |  | inconclusive [inhibitor, single point]
23 | Cc1cc(C)nc(N/N=C/c2ccccc2OCc2ccccc2)n1 |  | inconclusive [inhibitor, single point]
24 | O=C(NCCCN1CCOCC1)c1ccc(/C=C2\Oc3ccccc3N(Cc3ccccc3F)C2=O)cc1 | inactive: 1.8% | 

Row | SMILES | activity change, negative = growth inhibition | Potency
25 | Cc1cc(C)c(S(=O)(=O)Cc2ccccc2)c(Cl)n1 | inactive: -8.45% | 
26 | COc1ccc(CN(C)C(=S)Nc2ccc(Cl)cc2)cc1 | inactive: -17% | 
27 | O=C(COc1ccc2c3c(c(=O)oc2c1)CCCC3)N1CCN(c2ccc(F)cc2)CC1 |  | active: 23.1 µM
28 | COc1cc2c(c(OC)c1OC)-c1ccc(NCc3ccccc3)c(=O)cc1C(NC(C)=O)CC2 (stereo unspecified) |  | active: 0.92 µM
29 | CN(CC(=O)Nc1ccc(Cl)cc1)C(=O)c1ccc(COc2ccccc2)cc1 | inactive: -24.6% | 
30 | COc1ccc(S(=O)(=O)Oc2cc(C(=S)N3CCOCC3)ccc2OC)cc1 |  | inconclusive [inhibitor, single point]
31 | CC(=O)c1c(C)[nH]c2ccccc2c1=O | inactive: 0.331% | 
32 | COc1ccc(NC(C)=[N+](C)CCNS(=O)(=O)c2ccc(Cl)cc2)cc1Cl |  | inconclusive [inhibitor, single point]
33 | CC(C)(C)c1ccc(-c2nc3c(C#N)c(-c4ccc5c(c4)OCO5)ccn3n2)cc1 |  | active: 18.4 µM
34 | OC(COc1ccc(OCC(O)CN2CCN(Cc3ccccc3)CC2)cc1)CN1CCN(Cc2ccccc2)CC1 (stereo unspecified) |  | inconclusive [inhibitor, single point]
35 | CCCCN(CCCC)CCCNC(=O)c1ccc2nc(N3CCCCC3)sc2c1 |  | inconclusive [inhibitor, partial curve]
36 | O=C(NNC(=O)c1ccc(F)c(S(=O)(=O)N2CCOCC2)c1)c1ccc(Br)cc1 |  | inconclusive [inhibitor, single point]
37 | OC1(c2ccccc2)CNCCc2ccccc21 (stereo unspecified) | inactive: -7.91% | 
38 | Cc1ccc(N(C)S(=O)(=O)c2cccc(C(=O)OCC(=O)N(C)Cc3ccccc3)c2)cc1 |  | inconclusive [inhibitor, single point]
39 | COC(=O)c1sc(S(=O)(=O)N2CCN(c3ccccc3F)CC2)c(C(=O)OC)c1C |  | active: 14.6 µM
40 | Cc1nc(C(=O)NNC(=O)Nc2ccc(Cl)cc2)cs1 | inactive: 4.03% | 
41 | CNc1nc(NCCOc2ccccc2Cl)c2sccc2n1 |  | active: 9.2 µM
42 | COc1ccc(C(C)(C)C)cc1NC(=O)CN(C)C1=NS(=O)(=O)c2ccccc21 |  | inconclusive [inhibitor, single point]
43 | O=C(Cn1c(=O)c2c3c(sc2n(Cc2ccccc2)c1=O)CCCC3)NCCO |  | inconclusive [inhibitor, partial curve]
44 | COc1ccc(/C=C/C(=O)N2c3ccccc3Sc3ccc(C(F)(F)F)cc32)cc1 |  | inconclusive [inhibitor, single point]
45 | COc1ccc2c(c1)c1c(c(=O)n(-c3cc(Cl)ccc3C)c(=O)n1CC(=O)N1CCCC1)n2C |  | inconclusive [inhibitor, partial curve]
46 | Cc1nn2c(=O)cc(COc3ccc(/C=C(\C#N)C(=O)Nc4ccccc4C)cc3)nc2s1 | inactive: 13.6% | 
47 | COC(=O)c1ccc(CSc2ccc3nnc(-c4ccc(F)cc4)n3n2)o1 |  | inconclusive [inhibitor, single point]
48 | COc1ccc(-c2nnn3c2nc(NCCc2ccc(OC)c(OC)c2)c2ccccc23)cc1 |  | active: 8.2 µM

Row | SMILES | activity change, negative = growth inhibition | Potency
49 | CCCOc1ccc(/C=C/C(=O)N2CCN(c3ccccn3)CC2)cc1 |  | inconclusive [inhibitor, single point]
50 | Cc1oc2cc3oc(=O)c(CCC(=O)NCCCN4CCCC4=O)c(C)c3cc2c1C |  | active: 14.6 µM
51 | CCOC(=O)c1cccc(NC(=O)CCc2c(C)nn(-c3ccc(N4CCCCC4)nn3)c2C)c1 |  | inconclusive [inhibitor, single point]
52 | Cc1c(C(=O)OC2CCC(C)CC2)[nH]c2c1C(=O)CC(c1ccc(F)cc1)C2 (stereo unspecified) |  | inconclusive [inhibitor, partial curve, poor fit]
53 | Cc1ccc(S(=O)(=O)Nc2cccc(C(=O)NCC3(N4CCCCC4)CCCCC3)c2)cc1F | inconclusive: -10.3% [inhibitor] | 
54 | Cc1ccc(Sc2c(C)nn(C(C)(C)C)c2OC(=O)CC(C)C)cc1 | inconclusive: -37% [inhibitor] | 
55 | COc1ccc(S(=O)(=O)NCC(=O)N(CC(=O)NCC2CCCO2)c2cc(C)ccc2C)cc1 (stereo unspecified) |  | inconclusive [inhibitor, partial curve, poor fit]
56 | COc1ccc(Cn2ccc3nc(C)c(C(=O)N4CCN(c5ccc(F)cc5)CC4)cc3c2=O)cc1 |  | active: 23.1 µM
57 | O=C(NCC1OCCc2ccccc21)c1ccc(NC(=O)c2ccccc2Cl)cc1 (stereo unspecified) | inactive: -20.9% | 
58 | CCN(CC)CCCNC(=O)c1sc2nc(-c3ccc(F)cc3)cn2c1C |  | inconclusive [inhibitor, single point]
59 | CCCCN1C(=O)c2[nH]nc(-c3ccccc3O)c2C1c1ccc(OCc2ccccc2)c(OC)c1 (stereo unspecified) |  | inconclusive [inhibitor, single point]
60 | Cc1cc(Cl)ccc1NC(=S)NCc1ccccc1Cl |  | inconclusive [inhibitor, single point]
61 | CCOC(=O)C1=C[C@@H](CC)N(S(=O)(=O)c2ccccc2)[C@H]1c1ccccc1 |  | inconclusive [inhibitor, single point]
62 | COc1ccc(CNC(=O)CCN2C(=O)[C@@H]3Cc4ccccc4CN3C2=O)cc1 |  | inconclusive [inhibitor, single point]
63 | CCOC(=O)CSc1nc(-c2ccccc2)ns1 |  | inconclusive [inhibitor, single point]
64 | CCOc1ccccc1NC(=O)CSc1nnc(Cc2ccc(OC)cc2)c(=O)n1N |  | inconclusive [inhibitor, single point]
65 | O=C(N1CCCCC1)C1(S(=O)(=O)c2ccccc2)CC=CC1 |  | active: 20.6 µM
66 | COc1cccc(CC(=O)NN2C(=O)NC3(CCCCC3)C2=O)c1 | inactive: -3.11% | 
67 | O=[N+]([O-])c1cccc(C=NNC(=S)NC23CC4CC(CC(C4)C2)C3)c1 |  | inconclusive [inhibitor, single point]
68 | COC(=O)[C@H]1Cc2c([nH]c3ccccc23)CN1C(=O)COc1ccc2c(C)cc(=O)oc2c1 | inactive: -28.6% [at 9.04 µM] | 
69 | Cc1ccccc1NC(=O)c1cc[n+]([O-])cc1 | inactive: -10.2% | 
70 | CCc1cccc(NC(=O)C2CCCN(c3ncnc4c3nc3n4CCCCC3)C2)c1 (stereo unspecified) |  | inconclusive [inhibitor, single point]
71 | CNC(=O)[C@H](Cc1c[nH]c2ccccc12)NC(=O)[C@@H](CC(=O)NO)CC(C)C |  | active: 22.2 µM
